This is an account of results in US20180362645A1 (Amgen, published 2018).

Common to all, as to assay: cell-based or functional assay
The target of one experiment is cyno PAC1 (cynomolgus).
A further experiment addresses T1, rat PAC1 (rat, UniProt P32215 20-523).
T1 sequence (looked up): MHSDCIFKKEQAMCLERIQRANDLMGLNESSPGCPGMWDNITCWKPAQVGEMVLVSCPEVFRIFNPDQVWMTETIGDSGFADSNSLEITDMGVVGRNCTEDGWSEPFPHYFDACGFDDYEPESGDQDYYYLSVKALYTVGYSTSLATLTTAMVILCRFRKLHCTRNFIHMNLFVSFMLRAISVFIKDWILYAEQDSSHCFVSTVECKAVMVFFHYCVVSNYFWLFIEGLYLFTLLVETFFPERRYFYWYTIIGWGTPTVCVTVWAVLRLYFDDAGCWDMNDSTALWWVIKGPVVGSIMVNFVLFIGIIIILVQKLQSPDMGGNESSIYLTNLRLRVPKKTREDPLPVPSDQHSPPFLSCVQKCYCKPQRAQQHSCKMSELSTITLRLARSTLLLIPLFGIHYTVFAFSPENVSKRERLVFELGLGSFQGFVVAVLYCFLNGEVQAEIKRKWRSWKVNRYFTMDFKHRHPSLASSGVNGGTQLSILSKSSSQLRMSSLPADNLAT

In the next experiment the target is T2, human VPAC1 (human, UniProt P32241 31-457).
T2 sequence (looked up): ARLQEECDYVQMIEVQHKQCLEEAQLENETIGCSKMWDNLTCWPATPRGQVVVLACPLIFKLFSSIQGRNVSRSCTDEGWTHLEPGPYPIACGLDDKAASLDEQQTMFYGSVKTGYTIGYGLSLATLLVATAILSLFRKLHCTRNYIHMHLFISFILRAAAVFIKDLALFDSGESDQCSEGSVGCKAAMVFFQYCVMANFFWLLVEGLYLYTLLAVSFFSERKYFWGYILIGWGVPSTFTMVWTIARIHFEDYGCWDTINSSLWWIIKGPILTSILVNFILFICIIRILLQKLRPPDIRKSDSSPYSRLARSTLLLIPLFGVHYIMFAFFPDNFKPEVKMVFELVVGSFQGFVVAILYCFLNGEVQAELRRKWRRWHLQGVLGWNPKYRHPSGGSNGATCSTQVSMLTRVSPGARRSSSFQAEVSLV

In another experiment the target is T3, human VPAC2 (human, UniProt P41587 24-438).
T3 sequence (looked up): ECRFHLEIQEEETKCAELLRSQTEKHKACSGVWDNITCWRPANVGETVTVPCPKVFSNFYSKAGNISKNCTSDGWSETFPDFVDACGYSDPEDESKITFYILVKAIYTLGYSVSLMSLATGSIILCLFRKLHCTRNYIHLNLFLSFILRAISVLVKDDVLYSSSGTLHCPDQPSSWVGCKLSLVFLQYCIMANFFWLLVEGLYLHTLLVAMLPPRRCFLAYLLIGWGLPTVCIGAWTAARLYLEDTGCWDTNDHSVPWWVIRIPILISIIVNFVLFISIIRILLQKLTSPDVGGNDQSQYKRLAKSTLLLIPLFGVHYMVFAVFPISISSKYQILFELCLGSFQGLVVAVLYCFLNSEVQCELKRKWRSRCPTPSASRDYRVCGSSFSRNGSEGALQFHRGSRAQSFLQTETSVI

B1: 01B (antibody, human IgG1, kappa)
heavy: QVQLQQSGPGLVKPSQTLSLTCAISGDSVSSNSATWNWIRQSPSRGLEWLGRTYYRSKWSNHYAVSVKSRITINPDTSKSQFSLQLNSVTPEDTAVYYCARGTWKQLWFLDHWGQGTLVTVSSASTKGPSVFPLAPSSKSTSGGTAALGCLVKDYFPEPVTVSWNSGALTSGVHTFPAVLQSSGLYSLSSVVTVPSSSLGTQTYICNVNHKPSNTKVDKKV[no letters for human IgG1 Fc with changes]
light: DIQMTQSPSSLSASVGDRITITCRASQSISRYLNWYQQKPGKAPKLLIYAASSLQSGIPSRFSGSGSGTDFTLTINSLQPEDFATYFCQQSYSPPFTFGPGTKVDIKRTVAAPSVFIFPPSDEQLKSGTASVVCLLNNFYPREAKVQWKVDNALQSGNSQESVTEQDSKDSTYSLSSTLTLSKADYEKHKVYACEVTHQGLSSPVTKSFNRGEC
Turning to B1, the “cyno PAC1 IC50 (cAMP assay)” value with cyno PAC1 came out at 0.4 nM. For the same molecule, the “rat PAC1 IC50 (cAMP assay)” value with rat PAC1 is 21.6 nM. In addition, in the experiment with human VPAC1, the “hVPAC1 IC50 (cAMP assay)” value was over 10000 nM. Further, the “hVPAC2 IC50 (cAMP assay)” value with human VPAC2 is over 10000 nM.

B2: 39B (antibody, human IgG1, kappa)
heavy: QVQLQESGPGLVKPSQTLSLTCTVSGGSISSGGYYWSWIRQHPGKGLEWIGYIYYSGNTYYNPSLKSRVTISGDTSKNQFSLKLRSVTAADTAVYYCTRGGAARGMDVWGQGTTVTVSSASTKGPSVFPLAPSSKSTSGGTAALGCLVKDYFPEPVTVSWNSGALTSGVHTFPAVLQSSGLYSLSSVVTVPSSSLGTQTYICNVNHKPSNTKVDKKV[no letters for human IgG1 Fc with changes]
light: DIVMTQSPDSLAVSLGERATIHCKSSQSVLYSSNNKNFLTWYQQKPGQPPKLLIYRASTRESGVPDRFSGSGSGTDFTLTISSLQAEDVAVYFCQQYYSAPFTFGPGTRVDIKRTVAAPSVFIFPPSDEQLKSGTASVVCLLNNFYPREAKVQWKVDNALQSGNSQESVTEQDSKDSTYSLSSTLTLSKADYEKHKVYACEVTHQGLSSPVTKSFNRGEC
notes: "B" suffix: aglycosylated IgG1 variant (N297G); also called LC-19 and HC-52
As to B2, the “cyno PAC1 IC50 (cAMP assay)” value with cyno PAC1 is 3.9 nM. In addition, in the experiment with rat PAC1, the “rat PAC1 IC50 (cAMP assay)” value was 22.5 nM. Further, in the experiment with human VPAC1, the “hVPAC1 IC50 (cAMP assay)” value is over 10000 nM. For the same molecule, in the experiment with human VPAC2, the “hVPAC2 IC50 (cAMP assay)” value was over 10000 nM.
